# Test results from the supplement of paper PMC8728848.
# Some of the results follow.
# B1: InvD YPIII (Yersinia pseudotuberculosis), B1JSC0 (protein)
# chain: MIKYFSFFKKPEPIVGILPNRQSHHILPTHIRRVAWGTLLLQLFIPLSVSFSPAIAAMKASKADTMVSYSSTEPYVLGSGETVAMVAKKYGITVDELKKINIYRTFSRPFTALTTGDEIDIPRKASPFSVDNNKDNRLSVENTLAGHAVAGATALSNGDVAKSGERMVRSAASNEFNNSAQQWLSQFGTARVQLNINDDFHLDGSAADVLIPLYDNEKSILFTQLGARNKDSRNTVNMGAGVRTFQGNWMYGANTFFDNDLTGKNRRIGVGAEAWTDYLKLSANNYFGITDWHQSRDFIDYNERPANGYDLRAEAYLPSYPQLGGKAMYEKYRGDDVALFGKDNRQKNPHAITAGVNYTPIPLVTIGAEHRAGKGGQNDSNINFQLNYRLGETWQSHIDPSAVAASRTLAGSRYDLVERNNHIVLDYQKQNLVRLSLPDSLAGDPFSQLSVTAQVTATHGLERIDWQSAELMAAGGVLKQTSKNGLEITLPEYQMNRTGGNSYILNAIAYDTQGNASSQASMLITVNAQKINIANSTLVAVPINIEANNSDTSVVTLTLKDDNNIPVTGQDVTFLSPLGTLSAMTDSGNGVYTATLTAGTVSGTTAVSSNINGSALDMTPATVTLNGNSGELSITHSMLVAAPVNIEANGSDTSVVTLTLRDSNNNPVTGQTVTFAGTLGTLGAVTEGSSGVYTATLTAGIMVGTSSITASVNSTALGVTPATVTLNGDSGNLSTTNSTLVAAPVNIEANSSDTSVVTLTLRDNNNNPVTGQTVVFTSTLGTLGNVTEQASGVYTATLTAGTVSGVASLSVSVGGNALGVTPATVTLNGDSGNLSTTNSTLVAAPVNIEANSSDTSVVTLTLRDNNNNPVTGQTVNFAGTLGTLGTVSEGSSGVYTTTLTAGTVAGVASLSVNVGGNALGVTPATVTLNGNSGNLSATNSTLVAAPVNIEANSSDTSVVTLTLRDNNNNPVTGQTVAFTSTLGTLGNVTEQASGVYTATLTAGTVSGVASLSVSVNSNALGVTPATVTLNGDSGNLSTTNSTLVAAPVNIEANSSDTSVVTLTLRDNNNNPVTGQTVAFTSTLGTLGNVTEQASGLYTATLTAGTVSGVASLSVNVGGNALGVTPATVTLNGDSGNLSATNSTLVAAPVNIEANSSDTSVVTLTLRDNNNNPVTGQTVAFTSTLGTLGNVTEQASGLYTATLTAGTVSGVASLSVNVGGTALGVTPATVTLNGDSGNLSTTNSTLVAAPVNIEANSSDTSVVTLTLRDNNNNPVTGQTVAFTSTLGTLGNVTEQASGLYTATLTAGTVSGVASLSVSVNSTALGVTPATVTLNGDSGNLSTTNSTLVAAPVNIEANSSDTSVVTLTLRDNNNNPVTGQTVAFTSTLGTLGNVTEQASGVYTATLTAGTVAGVASLSVNVGGNALGVTPATVTLNGDSGNLSTTNSTLVAAPVNIEANSSDTSVVTLTLRDNNNNPVTGQTVAFTSTLGTLGNVTEQASGVYTATLTAGTVSGVASLSVSVGSSALGVTPATVTLNGDSGNLSTTNSTLVAAPVNIEANNSDTSVVTLTLRDNNNNPVTGQTVAFTSTLGTLGNVTEQASGVYTATLTAGTVSGVASLSVSVNSNALGVTPATVTLNGDSGNLSTTNSTLVAAPVNIEANSSDTSVVTLTLRDNNNNPVTGQTVVFTSTLGTLGNVTEQASGLYTATLTAGTVSGVASLSVSVGGNALGVTGNITLAPGALDAARSILAVNKPSINADDRIGSTITFTAQDAQGNAITGLDIAFMTDLENSQIMTLVDHNDGTYTANINGTQTGIANIAVQSSGATIAGLAATMVTITPGAWNTTQATPVMTVALPITTCQSSSGVYKRYYIGIVTHELYDNYGNEISGILTYNLGAGRYTTVTSQNSSVSGSNGLTRRSNSPVSHFILTSDAYTSQAACYAERIANVNVTITVTAITDDFKTSAVNKVFILGTGSN
# Assays:
# Assay in all cases: glycan array binding signal (z-score within array); higher = stronger binding
# Conditions in all cases: glycan notation: IUPAC condensed, linker removed
# [1] = target: Fuc(a1-3)[Gal3S(b1-4)]GlcNAc
# Outline: (§1)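 The binding signal is a Z-score computed within each array. Data were drawn from 3228 arrays in the Consortium for Functional Glycomics database, restricted to those with a known protein sequence. Scores were averaged over arrays of the same protein sequence at different concentrations or buffers, and over linkers, and negative values can be taken as non-binding.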
# [2] = target: Fuc(a1-3)[Gal3S(b1-4)]GlcNAc6S
# Outline: as §1
# [3] = target: Fuc(a1-3)[GalNAc(b1-4)]GlcNAc
# Outline: as §1
# [4] = target: Fuc(a1-3)[GalNAc(b1-4)]GlcNAc6S
# Outline: as §1
# Fuc(a1-4)GlcNAc = target: Fuc(a1-4)GlcNAc
# Outline: as §1
# Fuc(b1-3)GlcNAc = target: Fuc(b1-3)GlcNAc
# Outline: as §1
# Gal(a1-2)Gal = target: Gal(a1-2)Gal
# Outline: as §1
# Gal(a1-3)Gal = target: Gal(a1-3)Gal
# Outline: as §1
# Gal(a1-3)Gal(b1-3)GlcNAc = target: Gal(a1-3)Gal(b1-3)GlcNAc
# Outline: as §1
# [5] = target: Gal(a1-3)Gal(b1-3)GlcNAc(b1-2)Man
# Outline: as §1
# [6] = target: Gal(a1-3)Gal(b1-3)GlcNAc(b1-2)Man(a1-3)[Gal(a1-3)Gal(b1-3)GlcNAc(b1-2)Man(a1-6)]Man(b1-4)GlcNAc(b1-4)GlcNAc
# Outline: as §1
# [7] = target: Gal(a1-3)Gal(b1-3)GlcNAc(b1-3)GalNAc
# Outline: as §1
# [8] = target: Gal(a1-3)Gal(b1-3)GlcNAc(b1-6)GalNAc
# Outline: as §1
# [9] = target: Gal(a1-3)Gal(b1-3)[Fuc(a1-4)]GlcNAc(b1-2)Man(a1-3)[Gal(a1-3)Gal(b1-3)[Fuc(a1-4)]GlcNAc(b1-2)Man(a1-6)]Man(b1-4)GlcNAc(b1-4)GlcNAc
# Outline: as §1
# Gal(a1-3)Gal(b1-4)Glc = target: Gal(a1-3)Gal(b1-4)Glc
# Outline: as §1
# Gal(a1-3)Gal(b1-4)GlcNAc = target: Gal(a1-3)Gal(b1-4)GlcNAc
# Outline: as §1
# [10] = target: Gal(a1-3)Gal(b1-4)GlcNAc(b1-2)Man
# Outline: as §1
# [11] = target: Gal(a1-3)Gal(b1-4)GlcNAc(b1-2)Man(a1-3)[Gal(a1-3)Gal(b1-4)GlcNAc(b1-2)Man(a1-6)]Man(b1-4)GlcNAc(b1-4)GlcNAc
# Outline: as §1
# [12] = target: Gal(a1-3)Gal(b1-4)GlcNAc(b1-3)GalNAc
# Outline: as §1
# [13] = target: Gal(a1-3)Gal(b1-4)GlcNAc(b1-6)GalNAc
# Outline: as §1
# [14] = target: Gal(a1-3)Gal(b1-4)[Fuc(a1-3)]GlcNAc
# Outline: as §1
# [15] = target: Gal(a1-3)Gal(b1-4)[Fuc(a1-3)]GlcNAc(b1-2)Man(a1-3)[Gal(a1-3)Gal(b1-4)[Fuc(a1-3)]GlcNAc(b1-2)Man(a1-6)]Man(b1-4)GlcNAc(b1-4)GlcNAc
# Outline: as §1
# Gal(a1-3)GalNAc = target: Gal(a1-3)GalNAc
# Outline: as §1
# [16] = target: Gal(a1-3)[Gal(a1-4)]Gal(b1-4)GlcNAc
# Outline: as §1
# [17] = target: Gal(a1-4)Gal(b1-3)GlcNAc(b1-2)Man(a1-3)[Gal(a1-4)Gal(b1-3)GlcNAc(b1-2)Man(a1-6)]Man(b1-4)GlcNAc(b1-4)GlcNAc
# Outline: as §1
# Gal(a1-4)Gal(b1-4)Glc = target: Gal(a1-4)Gal(b1-4)Glc
# Outline: as §1
# Gal(a1-4)Gal(b1-4)GlcNAc = target: Gal(a1-4)Gal(b1-4)GlcNAc
# Outline: as §1
# [18] = target: Gal(a1-4)Gal(b1-4)GlcNAc(b1-2)Man(a1-3)[Gal(a1-4)Gal(b1-4)GlcNAc(b1-2)Man(a1-6)]Man(b1-4)GlcNAc(b1-4)GlcNAc
# Outline: as §1
# [19] = target: Gal(a1-4)Gal(b1-4)GlcNAc(b1-3)Gal(b1-4)Glc
# Outline: as §1
# Gal(a1-4)GlcNAc = target: Gal(a1-4)GlcNAc
# Outline: as §1
# Gal(a1-6)Glc = target: Gal(a1-6)Glc
# Outline: as §1
# Gal(b1-2)Gal = target: Gal(b1-2)Gal
# Outline: as §1
# Gal(b1-3)Gal = target: Gal(b1-3)Gal
# Outline: as §1
# Gal(b1-3)Gal(b1-4)GlcNAc = target: Gal(b1-3)Gal(b1-4)GlcNAc
# Outline: as §1
# Gal(b1-3)GalNAc = target: Gal(b1-3)GalNAc
# Outline: as §1
# [20] = target: Gal(b1-3)GalNAc(a1-3)[Fuc(a1-2)]Gal(b1-4)Glc
# Outline: as §1
# [21] = target: Gal(b1-3)GalNAc(a1-3)[Fuc(a1-2)]Gal(b1-4)GlcNAc
# Outline: as §1
# Gal(b1-3)GalNAc(b1-3)Gal = target: Gal(b1-3)GalNAc(b1-3)Gal
# Outline: as §1
# [22] = target: Gal(b1-3)GalNAc(b1-3)Gal(a1-4)Gal(b1-4)Glc
# Outline: as §1
# [23] = target: Gal(b1-3)GalNAc(b1-4)Gal(b1-4)Glc
# Outline: as §1
# [24] = target: Gal(b1-3)GalNAc(b1-4)[Neu5Ac(a2-3)]Gal(b1-4)Glc
# Outline: as §1
# Gal(b1-3)GlcNAc = target: Gal(b1-3)GlcNAc
# Outline: as §1
# [25] = target: Gal(b1-3)GlcNAc(a1-3)Gal(b1-4)GlcNAc
# Outline: as §1
# [26] = target: Gal(b1-3)GlcNAc(a1-6)Gal(b1-4)GlcNAc
# Outline: as §1
# Gal(b1-3)GlcNAc(b1-2)Man = target: Gal(b1-3)GlcNAc(b1-2)Man
# Outline: as §1
binder,measurement,setting,value
B1,glycan array binding signal (z-score),[1],-0.158
same,glycan array binding signal (z-score),[2],0.432
same,glycan array binding signal (z-score),[3],0.077
same,glycan array binding signal (z-score),[4],-0.093
same,glycan array binding signal (z-score),Fuc(a1-4)GlcNAc,-0.102
same,glycan array binding signal (z-score),Fuc(b1-3)GlcNAc,-0.26
same,glycan array binding signal (z-score),Gal(a1-2)Gal,-0.108
same,glycan array binding signal (z-score),Gal(a1-3)Gal,-0.281
same,glycan array binding signal (z-score),Gal(a1-3)Gal(b1-3)GlcNAc,-0.172
same,glycan array binding signal (z-score),[5],-0.33
same,glycan array binding signal (z-score),[6],0.213
same,glycan array binding signal (z-score),[7],-0.27
same,glycan array binding signal (z-score),[8],-0.32
same,glycan array binding signal (z-score),[9],-0.046
same,glycan array binding signal (z-score),Gal(a1-3)Gal(b1-4)Glc,0.115
same,glycan array binding signal (z-score),Gal(a1-3)Gal(b1-4)GlcNAc,-0.19
same,glycan array binding signal (z-score),[10],0.03
same,glycan array binding signal (z-score),[11],0.611
same,glycan array binding signal (z-score),[12],0.084
same,glycan array binding signal (z-score),[13],-0.261
same,glycan array binding signal (z-score),[14],0.07
same,glycan array binding signal (z-score),[15],1.03
same,glycan array binding signal (z-score),Gal(a1-3)GalNAc,0.115
same,glycan array binding signal (z-score),[16],-0.213
same,glycan array binding signal (z-score),[17],0.015
same,glycan array binding signal (z-score),Gal(a1-4)Gal(b1-4)Glc,0.157
same,glycan array binding signal (z-score),Gal(a1-4)Gal(b1-4)GlcNAc,-0.281
same,glycan array binding signal (z-score),[18],-0.275
same,glycan array binding signal (z-score),[19],-0.249
same,glycan array binding signal (z-score),Gal(a1-4)GlcNAc,-0.392
same,glycan array binding signal (z-score),Gal(a1-6)Glc,-0.338
same,glycan array binding signal (z-score),Gal(b1-2)Gal,-0.163
same,glycan array binding signal (z-score),Gal(b1-3)Gal,-0.347
same,glycan array binding signal (z-score),Gal(b1-3)Gal(b1-4)GlcNAc,0.093
same,glycan array binding signal (z-score),Gal(b1-3)GalNAc,-0.065
same,glycan array binding signal (z-score),[20],-0.354
same,glycan array binding signal (z-score),[21],-0.102
same,glycan array binding signal (z-score),Gal(b1-3)GalNAc(b1-3)Gal,-0.295
same,glycan array binding signal (z-score),[22],0.309
same,glycan array binding signal (z-score),[23],0.009
same,glycan array binding signal (z-score),[24],0.043
same,glycan array binding signal (z-score),Gal(b1-3)GlcNAc,-0.127
same,glycan array binding signal (z-score),[25],-0.29
same,glycan array binding signal (z-score),[26],0.117
same,glycan array binding signal (z-score),Gal(b1-3)GlcNAc(b1-2)Man,0.159
